A word on the viability, T/C: it is the result in the treated group divided by that in the control group, in per cent. As usually defined, the IC50 is the point on the concentration scale where inhibition reaches its midpoint.

Consider three molecules from PubChem BioAssay AID2060352 (Molecular Pharmacology Branch, DTP, NCI, 2025).

Certain results were filed several times, with different values. This is not the full list of results. An entry can have further records. Values that stand side by side repeat one measurement (runs, samples, wells, individuals or studies). A date in brackets names the month of the test. Additions like (4×) give the number of equal values in this list.

The test system of the assay is 616215-338-R-J1-PDC spheroid with HUVEC/MSC, viability. Description: Anticancer human tumor 616215-338-R-J1-PDC patient-derived colon adenocarcinoma cell line growth inhibition [TAK]. Particulars: for viability, T/C: stronger effect = lower value. The text has this:
Combinatorial screen of targeted agents with TAK-243 and ipatasertib in multi-cell type tumor spheroids
A high-throughput screen of multi-cell type tumor spheroids was designed to identify active combinations of targeted small molecules and TAK-243 or ipatasertib. Complex spheroids include a stromal component modeled by human endothelial cells (HUVEC) and fibroblasts modeled by human mesenchymal stem cells (MSCs). The concentration ranges selected for each drug and investigational agent were based upon clinically achievable concentrations if the clinical Cmax of the agent was known.
Compounds. The drugs and investigational agents: TAK-243 (785004), ipatasertib (767898), everolimus (733504), selumetinib (741078), bortezomib (756655), trametinib (758246), ixazomib (758254), vemurafenib (761431), dabrafenib (764134), sapanisertib (764658), alpelisib (765974), and copanlisib (816437), were obtained from the National Cancer Institute (NCI) Developmental Therapeutics Program Chemical Repository. The FDA-approved anticancer drug set is available from the NCI Developmental Therapeutics Program. […] The stock solutions were prepared in dimethyl sulfoxide (DMSO, Sigma-Aldrich, St. Louis, MO, cat. D2650) at 800-fold the tested concentration and stored at -70 degrees C prior to their use. All drugs and investigational agents were tested over a range starting from a high concentration at or near the clinical Cmax and decreasing in half-log increments. If the clinical Cmax for an agent had not been determined, the highest concentration tested was 10 microM.
NCI60 Cell Culture. NCI60 cell lines were obtained from the NCI Developmental Therapeutics Program Tumor Repository. For each lot of cells, the Repository performed Applied Biosystems AmpFLSTR Identifiler testing with PCR amplification to confirm consistency with the published Identifier STR profile for each cell line. Cells were kept in continuous culture for no more than 20 passages. The optimal seeding densities for each of the cell lines at each time point assessed were determined prior to performing the concentration response studies. Briefly, the NCI60 human tumor lines were grown as monolayers in RPMI 1640 medium supplemented with 10% FBS and 2 mmol/L L-glutamine.
An additional 2 lines were from the NCI60 cell line panel including melanomas, MALME-3M and SK-MEL-2. Pooled donor human umbilical vein endothelial cells (HUVEC, Lonza, cat. CC-2519) and human mesenchymal stem cells (hMSC, Lonza, cat. PT-2501) were purchased from Lonza (Walkersville, MD).
PDMR cell lines were grown in complete medium (DC medium): Dulbecco's modified Eagle's medium (DMEM)/F12 supplemented with 5% fetal bovine serum (FBS), 2 mM L-glutamine, 100 U/mL penicillin and 100 µg/ml streptomycin, 0.4 µg/ml hydrocortisone, 10 ng/ml epidermal growth factor (EGF) recombinant human protein, 24 µg/mL adenine, and 0.1 mg/mL primocin. During culture from frozen stock vials, PDMR cells were cultured in the same medium containing 10 µM Y-27632 (see Table 3). The PDCs were cultured in complete DMEM/F12 media without 10 microM Y-27632 dihydrochloride for at least two passages prior to the screen. The pooled donor HUVEC and hMSC were cultured in endothelial cell growth medium 2 (PromoCell, Heidelberg, Germany, cat. C-22011) and mesenchymal stem cell growth medium 2 (PromoCell, cat. C-28009), respectively. […]
For the pre-screen, cell seeding densities were determined from a titration spanning the range from 5,000 to 313 cells per well. […]
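Also: spheroids exposed to drugs for 7 days before readout.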

For the molecule `CC(C)CC(NC(=O)C(Cc1ccccc1)NC(=O)c1cnccn1)B(O)O` (stereo not given), the viability, T/C (compound alone 0.01 µM) is 91.3% [2020-02] and 0.26% [2020-03]. Regarding `CC(C)NCC(C(=O)N1CCN(c2ncnc3c2C(C)CC3O)CC1)c1ccc(Cl)cc1` (stereo not given), the viability, T/C was 100, 104, 97.7, 108, 95.1% [2020-02] and 124%, 121% (3×), 127% [2020-03] (compound alone 0.3 µM); 109, 112, 110, 118, 114% [2020-02] and 120, 125, 141, 129% (2×) [2020-03] (compound alone 0.949 µM); 81.8, 87.7, 78.6, 91.5, 96.7% [2020-02] and 71.4, 57.4, 90, 55.1, 80.1% [2020-03] (compound alone 3 µM).

Consider `CCCS(=O)(=O)Nc1ccc(F)c(C(=O)c2c[nH]c3ncc(-c4ccc(Cl)cc4)cc23)c1F`, for which, for the setting “compound alone”, the IC50 is > 100 µM and 8.01 µM.
